{"source": "PubChem BioAssay (Tox21)", "key": {"[1]": {"assay": "qHTS RealTime-Glo MT Cell Viability Assay in HEK293 cells - 32 hour (AID 1224868); note: nearly all actives have a fitted effect of over 50% in size; note: potency is the fitted concentration of half-maximal effect", "summary_of_the_method": "(§1)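 Cells + reagent dispensed (600 cells/well, HEK293) → 5 h at 37 C/5% CO2 → 23 nL compound in DMSO pinned → 40 h at 37 C → luminescence read at 0, 8, 16, 24, 32, 40 h.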"}, "[2]": {"assay": "A CellTox Green Cytotoxicity Assay to monitor cytotoxicity in HepG2 cells - 24 hour (AID 1224878)", "summary_of_the_method": "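HepG2, 600 cells/well premixed w/ CellTox Green; 5 h settle, 37 C/5% CO2; pintool cpd add (DMSO); 37 C, 40 h; fluorescence read at 0, 8, 16, 24, 32, 40 h.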"}, "[3]": {"molecular_target": "Peroxisome proliferator-activated receptor gamma (Homo sapiens) (UniProt P37231)", "sequence (P37231 whole entry, looked up)": "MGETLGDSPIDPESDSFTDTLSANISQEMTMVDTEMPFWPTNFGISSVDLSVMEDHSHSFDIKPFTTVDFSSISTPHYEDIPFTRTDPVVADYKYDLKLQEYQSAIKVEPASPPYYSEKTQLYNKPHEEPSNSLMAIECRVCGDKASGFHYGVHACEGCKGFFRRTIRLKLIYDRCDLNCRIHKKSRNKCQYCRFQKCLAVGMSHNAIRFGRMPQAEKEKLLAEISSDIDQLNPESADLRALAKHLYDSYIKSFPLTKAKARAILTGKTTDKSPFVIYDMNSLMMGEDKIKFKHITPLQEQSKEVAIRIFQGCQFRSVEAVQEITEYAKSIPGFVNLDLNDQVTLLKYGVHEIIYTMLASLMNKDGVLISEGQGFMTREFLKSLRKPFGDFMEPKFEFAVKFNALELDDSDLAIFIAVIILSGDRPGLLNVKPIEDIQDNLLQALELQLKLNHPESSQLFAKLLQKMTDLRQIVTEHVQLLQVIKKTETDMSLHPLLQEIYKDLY", "assay": "qHTS assay to identify small molecule agonists of the peroxisome proliferator-activated receptor gamma (PPARg) signaling pathway (AID 743094; active = well fitted activation curve with a large enough effect in the signal ratio in the repeat runs, not every such curve was filed as active; inconclusive = weak or mixed curves, or effect the other way; inactive = no such curve, though single readings can be large or run the other way; the % refers to the signal ratio)", "settings": "HEK293H PPARg-UAS-bla, beta-lactamase FRET ratio, 17 h; activation: at 57 µM (top of the series) unless noted", "summary_of_the_method": "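HEK293H PPARg-bla cells, 5 h settle at 37C/5% CO2; compound (DMSO) 17 h, 37C; B/G FRET substrate 1 h RT; fluorescence intensity read-out. qHTS format.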"}, "[4]": {"molecular_target": "Bile acid receptor (Homo sapiens) (UniProt Q96RI1)", "sequence (Q96RI1 whole entry, looked up)": "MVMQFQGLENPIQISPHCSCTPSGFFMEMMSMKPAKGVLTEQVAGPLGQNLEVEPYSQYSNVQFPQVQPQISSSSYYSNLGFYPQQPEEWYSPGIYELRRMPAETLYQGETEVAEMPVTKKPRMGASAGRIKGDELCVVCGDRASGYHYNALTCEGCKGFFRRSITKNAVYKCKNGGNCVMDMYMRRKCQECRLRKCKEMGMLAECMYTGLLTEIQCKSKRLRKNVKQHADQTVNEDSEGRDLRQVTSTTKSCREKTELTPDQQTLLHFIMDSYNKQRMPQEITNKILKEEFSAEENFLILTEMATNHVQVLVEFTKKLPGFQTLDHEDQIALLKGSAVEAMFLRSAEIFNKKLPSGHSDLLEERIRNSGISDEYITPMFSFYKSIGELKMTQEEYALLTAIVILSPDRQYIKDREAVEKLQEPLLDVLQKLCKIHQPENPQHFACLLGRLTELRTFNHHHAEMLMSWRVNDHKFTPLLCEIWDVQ", "assay": "qHTS assay to identify small molecule antagonists of the farnesoid-X-receptor (FXR) signaling pathway (AID 743217; active = well fitted inhibition curve with a large enough effect in the signal ratio in the repeat runs, not every such curve was filed as active; inconclusive = weak or mixed curves, or effect the other way; inactive = no such curve, though single readings can be large or run the other way; the % refers to the signal ratio)", "settings": "HEK293T FXR-UAS-bla, beta-lactamase ratio, CDCA-stimulated, 16 h; activity change, negative = inhibition: at 62.6 µM (top of the series) unless noted", "summary_of_the_method": "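Read-out: beta-lactamase FRET fluorescence (LiveBLAzer B/G substrate, 2 h, room temperature) in GeneBLAzer FXR-UAS-bla HEK 293T cells. Compounds were co-dosed with 50 uM chenodeoxycholic acid (final) and incubated 16 h at 37 °C.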"}, "[5]": {"assay": "qHTS RealTime-Glo MT Cell Viability Assay in HEK293 cells - 24 hour (AID 1224886)", "summary_of_the_method": "as §1"}, "[6]": {"molecular_target": "Nuclear receptor subfamily 1 group I member 2 (Homo sapiens) (UniProt O75469)", "sequence (O75469 whole entry, looked up)": "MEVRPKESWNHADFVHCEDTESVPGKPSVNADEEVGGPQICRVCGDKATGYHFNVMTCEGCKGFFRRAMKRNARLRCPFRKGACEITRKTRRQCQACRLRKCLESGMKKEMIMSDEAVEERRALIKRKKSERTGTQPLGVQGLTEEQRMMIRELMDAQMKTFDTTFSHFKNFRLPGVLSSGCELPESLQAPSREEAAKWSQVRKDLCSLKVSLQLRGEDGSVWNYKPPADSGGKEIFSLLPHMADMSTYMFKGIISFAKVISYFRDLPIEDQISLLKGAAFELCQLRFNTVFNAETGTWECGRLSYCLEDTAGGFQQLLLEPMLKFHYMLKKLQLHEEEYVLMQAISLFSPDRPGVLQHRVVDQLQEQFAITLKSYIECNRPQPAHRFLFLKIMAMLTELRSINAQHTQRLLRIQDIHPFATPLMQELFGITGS", "assay": "Human pregnane X receptor (PXR) small molecule agonists, qHTS assay (AID 1346982)", "summary_of_the_method": "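HepG2 PXR-Luc reporter line, 5% charcoal-stripped FBS; 5 hr pre-incubation, compound (DMSO) 24 hr at 37 C/5% CO2; ONE-Glo 30 min RT; luminescence read-out.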"}, "[7]": {"molecular_target": "Vitamin D3 receptor (Homo sapiens) (UniProt P11473)", "sequence (P11473 whole entry, looked up)": "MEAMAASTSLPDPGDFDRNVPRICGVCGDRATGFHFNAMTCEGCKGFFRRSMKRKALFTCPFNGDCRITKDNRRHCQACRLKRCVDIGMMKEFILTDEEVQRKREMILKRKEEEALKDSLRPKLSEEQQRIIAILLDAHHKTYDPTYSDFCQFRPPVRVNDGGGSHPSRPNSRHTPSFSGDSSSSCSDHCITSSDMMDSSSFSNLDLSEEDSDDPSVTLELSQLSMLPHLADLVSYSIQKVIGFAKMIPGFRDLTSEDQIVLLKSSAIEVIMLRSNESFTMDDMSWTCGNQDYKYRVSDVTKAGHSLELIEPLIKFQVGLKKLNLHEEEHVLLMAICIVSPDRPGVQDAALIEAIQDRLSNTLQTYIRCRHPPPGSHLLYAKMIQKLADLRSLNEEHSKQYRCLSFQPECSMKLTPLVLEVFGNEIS", "assay": "qHTS assay to identify small molecule agonists of the vitamin D receptor (VDR) signaling pathway (AID 743222; calls by dose curve)", "settings": "HEK293T VDR-UAS-bla, beta-lactamase FRET ratio, 16 h; activation: at 63.5 µM (top of the series) unless noted", "summary_of_the_method": "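Beta-lactamase reporter readout (LiveBLAzer B/G FRET, 2 h RT) in VDR-bla cells after 16 h compound treatment at 37C, 5% CO2; cells pre-incubated 4 h before pin transfer of DMSO solutions.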"}, "[8]": {"assay": "A CellTox Green Cytotoxicity Assay to monitor cytotoxicity in HEK293 cells - 40 hour (AID 1224871)", "summary_of_the_method": "(§2)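 Read-out: fluorescence of a cell-impermeant cyanine dye staining DNA of dead cells, proportional to cytotoxicity. HEK293, 600 cells/well with reagent, compound (23 nL DMSO) added after 5 h; reads at 0, 8, 16, 24, 32, 40 h.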"}, "[9]": {"assay": "A CellTox Green Cytotoxicity Assay to monitor cytotoxicity in HEK293 cells - 8 hour (AID 1224884)", "summary_of_the_method": "as §2"}, "[10]": {"assay": "A CellTox Green Cytotoxicity Assay to monitor cytotoxicity in HEK293 cells - 16 hour (AID 1224888)", "summary_of_the_method": "as §2"}, "[11]": {"molecular_target": "Estrogen receptor beta (Homo sapiens) (UniProt Q92731)", "sequence (Q92731 whole entry, looked up)": "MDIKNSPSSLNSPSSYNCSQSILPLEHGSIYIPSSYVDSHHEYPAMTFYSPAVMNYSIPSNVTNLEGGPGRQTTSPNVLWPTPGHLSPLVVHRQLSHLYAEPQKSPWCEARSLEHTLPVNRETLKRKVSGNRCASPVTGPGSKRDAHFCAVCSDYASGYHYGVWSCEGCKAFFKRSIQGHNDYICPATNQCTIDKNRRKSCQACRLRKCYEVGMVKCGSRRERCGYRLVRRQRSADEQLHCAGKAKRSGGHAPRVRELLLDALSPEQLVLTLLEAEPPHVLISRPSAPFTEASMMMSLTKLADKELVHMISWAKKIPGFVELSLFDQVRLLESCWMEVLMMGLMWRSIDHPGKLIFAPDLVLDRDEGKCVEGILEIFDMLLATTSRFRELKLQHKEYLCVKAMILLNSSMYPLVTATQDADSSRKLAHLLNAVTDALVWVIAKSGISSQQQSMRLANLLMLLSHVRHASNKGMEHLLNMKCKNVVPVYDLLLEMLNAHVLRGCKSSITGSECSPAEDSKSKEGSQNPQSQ", "assay": "qHTS assay to identify small molecule agonists of the estrogen receptor beta (ER-beta) signaling pathway (AID 1259377; active = well fitted activation curve with a large enough effect in the signal ratio in the repeat runs, not every such curve was filed as active; inconclusive = weak or mixed curves, or effect the other way; the % refers to the signal ratio)", "settings": "ER-beta-UAS-bla HEK293T, beta-lactamase FRET ratio, 16 h; activation: at 92.4 µM (top of the series) unless noted", "summary_of_the_method": "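HEK293T ER-beta-UAS-bla; 2% charcoal-stripped FBS; cells pre-incubated 6 hr, compound 16 hr, 37C/5% CO2; LiveBLAzer B/G FRET substrate 2 h RT; fluorescence intensity read.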"}, "[12]": {"assay": "qHTS assay to identify small molecule agonists of the estrogen receptor beta (ER-beta) signaling pathway - cell viability counter screen (AID 1259380)", "summary_of_the_method": "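Luminescence read-out (CellTiter-Glo, 30 min, room temp) taken in the same wells as the beta-lactamase reporter assay; ER-beta-UAS-bla HEK293T cells exposed to DMSO-dissolved compounds for 16 hr at 37C in 2% charcoal-stripped FBS medium.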"}, "[13]": {"assay": "qHTS assay for identifying genotoxic compounds that show differential cytotoxicity against isogenic chicken DT40 cell lines with known DNA damage response pathways - Rad54/Ku70 mutant cell line (AID 743015)", "settings": "DT40 Rad54/Ku70 mutant viability, CellTiter-Glo, 40 h; activity change, negative = cytotoxicity: at 66.8 µM (top of the series) unless noted"}, "[14]": {"molecular_target": "Estrogen receptor (Homo sapiens) (UniProt P03372)", "sequence (P03372 whole entry, looked up)": "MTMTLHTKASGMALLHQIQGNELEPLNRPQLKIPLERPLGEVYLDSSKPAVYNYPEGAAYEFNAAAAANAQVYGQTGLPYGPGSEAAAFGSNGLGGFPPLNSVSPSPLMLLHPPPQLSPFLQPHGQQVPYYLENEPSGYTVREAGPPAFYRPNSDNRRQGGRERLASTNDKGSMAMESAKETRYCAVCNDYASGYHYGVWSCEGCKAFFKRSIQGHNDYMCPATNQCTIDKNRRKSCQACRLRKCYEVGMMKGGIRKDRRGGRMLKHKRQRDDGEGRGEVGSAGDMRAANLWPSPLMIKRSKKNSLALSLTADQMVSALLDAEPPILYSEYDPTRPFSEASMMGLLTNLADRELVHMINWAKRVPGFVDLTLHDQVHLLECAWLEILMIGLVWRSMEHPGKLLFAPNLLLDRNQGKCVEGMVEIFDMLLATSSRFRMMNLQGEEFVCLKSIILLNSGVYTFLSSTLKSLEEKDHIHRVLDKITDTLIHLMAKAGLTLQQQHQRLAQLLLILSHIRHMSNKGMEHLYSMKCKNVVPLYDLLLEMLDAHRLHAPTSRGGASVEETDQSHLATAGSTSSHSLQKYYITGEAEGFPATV", "assay": "qHTS assay to identify small molecule agonists of the estrogen receptor alpha (ER-alpha) signaling pathway using the BG1 cell line (AID 743079)", "settings": "BG1Luc4E2 cells, ERE-luciferase agonist, 22 h"}, "[15]": {"molecular_target": "Peroxisome proliferator-activated receptor delta (Homo sapiens) (UniProt Q03181)", "sequence (Q03181 whole entry, looked up)": "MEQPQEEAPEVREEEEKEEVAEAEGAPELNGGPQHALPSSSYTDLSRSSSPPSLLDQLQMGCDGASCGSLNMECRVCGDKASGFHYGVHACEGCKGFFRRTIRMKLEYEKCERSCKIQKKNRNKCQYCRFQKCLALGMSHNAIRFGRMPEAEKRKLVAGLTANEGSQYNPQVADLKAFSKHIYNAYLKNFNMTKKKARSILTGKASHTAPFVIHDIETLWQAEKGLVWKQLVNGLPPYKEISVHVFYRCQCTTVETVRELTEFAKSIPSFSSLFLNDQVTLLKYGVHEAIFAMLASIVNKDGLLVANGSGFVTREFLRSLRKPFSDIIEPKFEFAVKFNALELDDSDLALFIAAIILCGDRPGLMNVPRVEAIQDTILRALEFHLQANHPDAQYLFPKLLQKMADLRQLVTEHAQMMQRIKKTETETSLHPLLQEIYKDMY", "assay": "qHTS assay to identify small molecule antagonists of the peroxisome proliferator-activated receptor delta (PPARd) signaling pathway (AID 743215; active = well fitted inhibition curve with a large enough effect in the signal ratio in the repeat runs, not every such curve was filed as active; inconclusive = weak or mixed curves, or effect the other way; inactive = no such curve, though single readings can be large or run the other way; the % refers to the signal ratio)", "settings": "HEK293H PPARd-UAS-bla, beta-lactamase FRET ratio, antagonist, 17 h; ratio activity, negative = inhibition: at 62 µM (top of the series) unless noted", "summary_of_the_method": "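HEK293H GeneBLAzer PPARd UAS-bla reporter cells; cpd + L165041 300 nM final, 17 h 37 C; LiveBLAzer B/G FRET substrate 2 h RT; fluorescence intensity read-out. Antagonist mode.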"}, "[16]": {"assay": "qHTS assay to identify small molecule antagonists of the estrogen receptor alpha (ER-alpha) signaling pathway - cell viability counter screen (AID 743074; calls by dose curve)"}, "[17]": {"assay": "Caspase-3/7 induction in CHO-K1 cells by small molecules, qHTS cell viability counter screen (AID 1346979)", "summary_of_the_method": "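Cells (CHO-K1, wild type) are plated at 1,500 per well and incubated 5hr. Test compounds in DMSO are then pinned in, followed by 16hr at 37C and 5% CO2. Viability is read by CellTiter-Fluor fluorescence after 1hr.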"}, "[18]": {"settings": "activation: at 70.3 µM (top of the series) unless noted"}}, "note": "Several values for one entry are separate records, joined by “and”; a condition that tells them apart may be missing. Equal entries are not always repeated. Inconclusive results, whose numbers are uncertain, are shown with a selection of clear calls. For some assays here: Potencies beside an inconclusive call are fits to weak or partial responses and may not hold up. Activity calls are given as the source filed them. Unless noted, calls come from the whole dose curve; as a rule, active = well fitted curve in the direction sought with a large enough effect in the repeat runs; inconclusive = weak or mixed curves; inactive = no such curve, though single readings can be large; an effect the other way counts as inactive or inconclusive. Tags give direction and shape of the fitted curve or compound fluorescence and quenching. Throughout, for Cytotoxicity: % is set by controls: 0 for no effect and ±100 for the full control effect. Throughout, for ratio activity, negative = inhibition: % is set by controls: 0 for no effect and ±100 for the full control effect.", "data": [{"smiles": "CC(O)CN", "note": "(stereo unspecified)", "values": [{"measurement": "Potency", "setting": "[1]", "result": "inactive"}, {"measurement": "Potency", "setting": "[2]", "result": "inactive"}]}, {"smiles": "CC(=O)O[C@@]12CO[C@@H]1C[C@H](O)[C@@]1(C)C(=O)[C@H](O)C3=C(C)[C@@H](OC(=O)[C@H](O)[C@@H](NC(=O)OC(C)(C)C)c4ccccc4)C[C@@](O)([C@@H](OC(=O)c4ccccc4)[C@H]21)C3(C)C", "values": [{"measurement": "activation", "setting": "[3]", "result": "inconclusive: -21.1%"}, {"measurement": "Potency", "setting": "[4]", "result": "inconclusive: 1.68 µM [rising, partial curve]"}, {"measurement": "Potency", "setting": "[2]", "result": "inconclusive: 0.0067 µM [activator, full curve, poor fit]"}, {"measurement": "Potency", "setting": "[5]", "result": "inconclusive: 0.0338 µM [cytotoxic, full curve]"}, {"measurement": "Potency", "setting": "[6]", "result": "inactive"}]}, {"smiles": "CC(C)(C)NC[C@H](O)COc1cccc2c1CCCC2=O", "values": [{"measurement": "Potency", "setting": "[7]", "result": "inactive"}, {"measurement": "Potency", "setting": "[8]", "result": "inconclusive: 9.52 µM [activator, partial curve, poor fit]"}, {"measurement": "Potency", "setting": "[9]", "result": "inconclusive: 9.52 µM [activator, partial curve, poor fit]"}, {"measurement": "Potency", "setting": "[10]", "result": "inconclusive: 10.7 µM [activator, single point]"}, {"measurement": "Potency", "setting": "[11]", "result": "inactive"}, {"measurement": "Potency", "setting": "[12]", "result": "inactive"}]}, {"smiles": "CC1(C)SC(C)(C)SC(C)(C)S1", "values": [{"measurement": "Potency", "setting": "[13]", "result": "inconclusive: 54.5 µM [cytotoxic, partial curve, poor fit]"}, {"measurement": "Potency", "setting": "[14]; [18]", "result": "inactive"}, {"measurement": "Potency", "setting": "[15]", "result": "inactive"}, {"measurement": "Potency", "setting": "[1]", "result": "inconclusive: 38.9 µM [cytotoxic, partial curve]"}, {"measurement": "Potency", "setting": "[2]", "result": "inconclusive: 54.9 µM [activator, partial curve, poor fit]"}, {"measurement": "Potency", "setting": "[5]", "result": "inconclusive: 38.9 µM [cytotoxic, partial curve]"}]}, {"smiles": "NC(=O)NNC(N)=O", "values": [{"measurement": "Potency", "setting": "[16]", "result": "inactive"}, {"measurement": "Potency", "setting": "[7]", "result": "inactive"}]}, {"smiles": "CC1(C)COCN1", "values": [{"measurement": "Potency", "setting": "[8]", "result": "inconclusive: 21.9 µM [activator, single point]"}, {"measurement": "Potency", "setting": "[10]", "result": "inconclusive: 24.5 µM [activator, single point]"}]}, {"smiles": "CCCCC(CC)(CO)CO", "values": [{"measurement": "Potency", "setting": "[13]", "result": "inactive"}]}, {"smiles": "CCOCCn1c(C2CCN(CCc3ccc(C(C)(C)C(=O)O)cc3)CC2)nc2ccccc21", "values": [{"measurement": "ratio activity, negative = inhibition", "setting": "[15]", "result": "inconclusive: -4.28%"}, {"measurement": "Potency", "setting": "[2]", "result": "inconclusive: 9.52 µM [activator, partial curve]"}]}, {"smiles": "CCCCCCCC(=O)O", "values": [{"measurement": "Potency", "setting": "[16]", "result": "inconclusive: 21.1 µM [cytotoxic, full curve]"}, {"measurement": "activation", "setting": "[14]; [18]", "result": "inconclusive: 1.29% [phenotype inactive]"}, {"measurement": "activation", "setting": "[14]; at 70.3 µM (top of the series)", "result": "inactive: -3.98% and inactive: -0.737%"}, {"measurement": "Potency", "setting": "[8]", "result": "inconclusive: 5.3 µM [activator, single point]"}, {"measurement": "Potency", "setting": "[5]", "result": "inactive"}, {"measurement": "Potency", "setting": "[11]", "result": "inconclusive: 29.6 µM [activator, partial curve]"}, {"measurement": "Potency", "setting": "[17]", "result": "inconclusive: 29.6 µM [rising, partial curve]"}]}, {"smiles": "CC(O)COCC(C)O", "note": "(stereo unspecified)", "values": [{"measurement": "Potency", "setting": "[13]", "result": "inconclusive: 68.7 µM [rising, partial curve, poor fit]"}, {"measurement": "activation", "setting": "[14]; [18]", "result": "inconclusive: -6.21% [phenotype inactive]"}, {"measurement": "ratio activity, negative = inhibition", "setting": "[15]", "result": "inconclusive: 0.0873% [fluorescent]"}, {"measurement": "activation", "setting": "[7]", "result": "inconclusive: 0.838%"}]}, {"smiles": "CCOC(=O)Nc1ccc2c(c1)N(C(=O)CCN1CCOCC1)c1ccccc1S2", "values": [{"measurement": "Potency", "setting": "[13]", "result": "inactive"}, {"measurement": "Potency", "setting": "[9]", "result": "inactive"}, {"measurement": "Potency", "setting": "[6]", "result": "active: 7.5 µM"}]}, {"smiles": "O=C(O)c1cc(Cl)cc(Cl)c1", "values": [{"measurement": "Potency", "setting": "[12]", "result": "inactive"}]}]}
